Laboratory results as given in a collection of fitness landscapes (doi:10.1016/j.celrep.2020.107928).
In all, about 81,000 sequences were measured (“one-hybrid fitness for binding NBS DNA”: median about -0.1, highest 2% from about 0.36 on). The list shows a part of the results.

B1: Caulobacter ParB omega fusion; a variant is named by its letters at X, in order, B8GW30 (parent)
chain: MESVVVGEPGMSEGRRGLGRGLSALLGEVDAAPAQAPGEQLGGSREAPIEILQRNPDQPRRTFREEDLEDLSNSIREKGVLQPILVRPSPDTAGEYQIVAGERAWRAAQRAGLKTVPIMVRELDDLAVLEIGIIENVQRADLNVLEEALSYKVLMEKFERTQENIAQTIGKSXSHVANXMRLLXLPDEVQSYLVSGELTAXHARAIAAAADPVALAKQIIEGGLSVRETEALARKAPNLSAGKSKGGRPPRVKDTDTQALESDLSSVLGLDVSIDHRGSTGTLTITYATLEQLDDLCNRLTRGI

Variants of: B1
Experiment: one-hybrid fitness for binding NBS DNA (the Noc-binding site; scaled: cognate 1, non-cognate 0); higher = stronger binding
Conditions: with NBS DNA site
In short: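 Caulobacter ParB libraries with four specificity codons randomised were screened by bacterial one-hybrid selection in the E. coli USO strain, using a HIS3 reporter whose site lies 19 bp from the promoter. Selection ran for 48 hours at 37°C on M9 lacking histidine, with 0.1 mM IPTG and 5 mM 3-AT. Plasmids were Illumina-sequenced before and after selection, three replicate libraries were pooled, and variants with under 10 reads were dropped. Fitness is the log change in each variant's read ratio to wild type, rescaled against the cognate and non-cognate sites.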

Variant	one-hybrid fitness for binding NBS DNA
ASKM	≤ 0.2
HARS	≤ 0.2
AYKS	≤ 0.2
HGYR	≤ 0.2
TSLT	≤ 0.2
GRCT	≤ 0.2
HTKL	≤ 0.2
TTPH	≤ 0.2
WLVG	≤ 0.2
MWHK	≤ 0.2
AQSG	≤ 0.2
IAHE	≤ 0.2
DGKG	≤ 0.2
FLTS	≤ 0.2
GPIY	≤ 0.2
WGPE	≤ 0.2
ANFS	≤ 0.2
TFAR	≤ 0.2
QAMS	0.266
ATMY	≤ 0.2
ATPR	≤ 0.2
NQEI	≤ 0.2
EGPE	≤ 0.2
HFTY	≤ 0.2

Variant	one-hybrid fitness for binding NBS DNA
AIMD	≤ 0.2
KCKV	≤ 0.2
RWDM	≤ 0.2
QLTP	≤ 0.2
HSMS	≤ 0.2
PSLL	≤ 0.2
VSHS	≤ 0.2
RQCA	≤ 0.2
SPME	≤ 0.2
NIRF	≤ 0.2
KTSV	≤ 0.2
LAGP	≤ 0.2
LVSA	≤ 0.2
HRQR	≤ 0.2
YTFR	≤ 0.2
DMRV	≤ 0.2
EGMW	≤ 0.2
ASKK	≤ 0.2
WTES	≤ 0.2
PTVT	≤ 0.2
KRRH	0.422
KNKT	≤ 0.2
RCQE	≤ 0.2
GFDT	≤ 0.2

Variant	one-hybrid fitness for binding NBS DNA
GFLM	≤ 0.2
QNCP	≤ 0.2
QICF	≤ 0.2
EASA	≤ 0.2
QIEC	≤ 0.2
RKSH	0.211
HCNH	≤ 0.2
TTND	≤ 0.2
SYIS	≤ 0.2
SKPC	≤ 0.2
AVAT	≤ 0.2
QVSR	0.38
LLAG	≤ 0.2
FHRG	≤ 0.2
VINC	≤ 0.2
TGAR	≤ 0.2
LRIS	≤ 0.2
NSSE	≤ 0.2
SIKV	≤ 0.2
YGRY	≤ 0.2
CCPR	≤ 0.2
HAYG	≤ 0.2
KDPE	≤ 0.2
EQLC	≤ 0.2

Variant	one-hybrid fitness for binding NBS DNA
FKMS	≤ 0.2
PVHG	≤ 0.2
VSPV	≤ 0.2
RLKL	≤ 0.2
VPTC	≤ 0.2
QKCG	≤ 0.2
LRQA	≤ 0.2
QRET	0.603
DDYY	≤ 0.2
IILC	≤ 0.2
NWVT	≤ 0.2
WFHT	≤ 0.2
HVQT	≤ 0.2
GYRK	≤ 0.2
QSMD	≤ 0.2
FRRT	≤ 0.2
AYSW	≤ 0.2
LNRL	≤ 0.2
PVGL	≤ 0.2
RRQE	≤ 0.2
PQTH	≤ 0.2
DDRR	≤ 0.2
ATIE	≤ 0.2
STSA	≤ 0.2

Variant	one-hybrid fitness for binding NBS DNA
ARGP	≤ 0.2
YAKS	≤ 0.2
WSEG	≤ 0.2
MPHL	≤ 0.2
EKYC	≤ 0.2
NHHG	≤ 0.2
SDTM	≤ 0.2
YQCS	≤ 0.2
SMNI	≤ 0.2
FTVL	≤ 0.2
NSAI	≤ 0.2
IRQR	0.286
PILN	≤ 0.2
HMDT	≤ 0.2
LPPM	≤ 0.2
GNHS	≤ 0.2
DWMC	≤ 0.2
AFMV	≤ 0.2
ATLS	≤ 0.2
GKGS	≤ 0.2
THAY	≤ 0.2
KYDS	≤ 0.2
CGLS	≤ 0.2
ILRM	≤ 0.2

Variant	one-hybrid fitness for binding NBS DNA
NSKA	≤ 0.2
RCKI	≤ 0.2
DKKS	≤ 0.2
WSPG	≤ 0.2
KWGG	≤ 0.2
TRHW	≤ 0.2
QNYP	≤ 0.2
TASG	≤ 0.2
HFYG	≤ 0.2
LRRL	≤ 0.2
LCDP	≤ 0.2
ANWL	≤ 0.2
WRLW	≤ 0.2
NFAR	≤ 0.2
PEQN	≤ 0.2
VDAA	≤ 0.2
LAKL	≤ 0.2
AASG	≤ 0.2
RNHD	≤ 0.2
VNIL	≤ 0.2
IFRA	≤ 0.2
PMHC	≤ 0.2
PITA	≤ 0.2
GYKG	≤ 0.2

Variant	one-hybrid fitness for binding NBS DNA
SNNG	≤ 0.2
RTPA	≤ 0.2
HSNI	≤ 0.2
VDHS	≤ 0.2
PCEY	≤ 0.2
LRWW	≤ 0.2
TFSR	≤ 0.2
HTPG	≤ 0.2
PCIR	≤ 0.2
IGHT	≤ 0.2
VLSE	≤ 0.2
EKSE	≤ 0.2
KKKT	0.427
ELNL	≤ 0.2
LLDK	≤ 0.2
TMLA	≤ 0.2
YNPE	≤ 0.2
CIPR	≤ 0.2
AEQS	≤ 0.2
CTDH	≤ 0.2
TDKT	≤ 0.2
RPEG	≤ 0.2
KTYA	≤ 0.2
QHEC	≤ 0.2

Variant	one-hybrid fitness for binding NBS DNA
LSIY	≤ 0.2
RFEV	≤ 0.2
ISTS	≤ 0.2
GLIG	≤ 0.2
VSAS	≤ 0.2
TAFI	≤ 0.2
PMMS	≤ 0.2
PQPL	≤ 0.2
EIQL	≤ 0.2
HRVK	≤ 0.2
KATQ	≤ 0.2
YEYS	≤ 0.2
VESS	≤ 0.2
GDCG	≤ 0.2
DLHR	≤ 0.2
YVDR	≤ 0.2
LYCY	≤ 0.2
DQQT	≤ 0.2
EVWT	≤ 0.2
DYKL	≤ 0.2
AFNW	≤ 0.2
AKCG	≤ 0.2
REPH	≤ 0.2
YNQS	≤ 0.2

Variant	one-hybrid fitness for binding NBS DNA
PPIL	≤ 0.2
RKWC	≤ 0.2
GNLI	≤ 0.2
THSI	≤ 0.2
RWTM	≤ 0.2
ADAC	≤ 0.2
GPCC	≤ 0.2
SNTK	≤ 0.2
EMYS	≤ 0.2
RMMS	0.289
SFPL	≤ 0.2
QTNV	0.346
QKFG	≤ 0.2
RGRM	≤ 0.2
HNFW	≤ 0.2
DLWG	≤ 0.2
YKTT	≤ 0.2
RSWT	0.215
EDGL	≤ 0.2
VEDR	≤ 0.2
LQSI	≤ 0.2
ADNV	≤ 0.2
FNNS	≤ 0.2
SYLW	≤ 0.2

Variant	one-hybrid fitness for binding NBS DNA
NIRA	≤ 0.2
YKVS	≤ 0.2
STHP	≤ 0.2
LHAS	≤ 0.2
VRNQ	≤ 0.2
MTRM	≤ 0.2
ENNS	≤ 0.2
AGPC	≤ 0.2
QYAC	≤ 0.2
RRIH	0.338
QSKA	0.558
MNDD	≤ 0.2
PPRN	≤ 0.2
NDTY	≤ 0.2
RVGS	0.463
PYKV	≤ 0.2
QHGI	≤ 0.2
VGGG	≤ 0.2
TFCY	≤ 0.2
RLNT	0.528
DKRI	≤ 0.2
RCGG	≤ 0.2
DRDY	≤ 0.2
HYMV	≤ 0.2

Variant	one-hybrid fitness for binding NBS DNA
PMAF	≤ 0.2
QAWA	≤ 0.2
EQRT	≤ 0.2
ANMW	≤ 0.2
ISFR	≤ 0.2
KDVG	≤ 0.2
MPPS	≤ 0.2
RKMA	0.26
LMRW	≤ 0.2
SLLH	≤ 0.2
NWNQ	≤ 0.2
QHNP	≤ 0.2
SNIL	≤ 0.2
FDQS	≤ 0.2
TIVG	≤ 0.2
ETKG	≤ 0.2
PPRT	≤ 0.2
NSEV	≤ 0.2
RSWL	≤ 0.2
QIHC	≤ 0.2
RHYY	≤ 0.2
IYLR	≤ 0.2
RLNI	≤ 0.2
KTAF	≤ 0.2

Variant	one-hybrid fitness for binding NBS DNA
TEPL	≤ 0.2
CTVD	≤ 0.2
DSNP	≤ 0.2
PATQ	≤ 0.2
VKDI	≤ 0.2
VLYA	≤ 0.2
PTAA	≤ 0.2
PRSY	≤ 0.2
SMSG	≤ 0.2
TYDS	≤ 0.2
ETHR	≤ 0.2
PHNT	≤ 0.2
FFGV	≤ 0.2
NIYG	≤ 0.2
VPHI	≤ 0.2
IKPF	≤ 0.2
AKLR	≤ 0.2
TIIA	≤ 0.2
RWNA	≤ 0.2
CTPF	≤ 0.2
GKIS	≤ 0.2
MFVC	≤ 0.2
NLSH	≤ 0.2
TRAW	≤ 0.2

Variant	one-hybrid fitness for binding NBS DNA
RLCF	≤ 0.2
HCYS	≤ 0.2
TVCG	≤ 0.2
IIYS	≤ 0.2
PTFS	≤ 0.2
AFKS	≤ 0.2
RAIC	≤ 0.2
WGSC	≤ 0.2
YLCT	≤ 0.2
NWRK	≤ 0.2
MFTH	≤ 0.2
GLGV	≤ 0.2
HSTQ	≤ 0.2
LIKP	≤ 0.2
EDAR	≤ 0.2
WLAW	≤ 0.2
GVNW	≤ 0.2
AETG	≤ 0.2
